Data: the supplement of paper PMC3334620
Over roughly 33,000 sequences, “E-score (-0.5 to 0.5)” has its median near -0.035; the highest 2% begin near 0.34. The list shows a part of the results.

Target: T1, Mot3 (UniProt P54785)
T1 sequence: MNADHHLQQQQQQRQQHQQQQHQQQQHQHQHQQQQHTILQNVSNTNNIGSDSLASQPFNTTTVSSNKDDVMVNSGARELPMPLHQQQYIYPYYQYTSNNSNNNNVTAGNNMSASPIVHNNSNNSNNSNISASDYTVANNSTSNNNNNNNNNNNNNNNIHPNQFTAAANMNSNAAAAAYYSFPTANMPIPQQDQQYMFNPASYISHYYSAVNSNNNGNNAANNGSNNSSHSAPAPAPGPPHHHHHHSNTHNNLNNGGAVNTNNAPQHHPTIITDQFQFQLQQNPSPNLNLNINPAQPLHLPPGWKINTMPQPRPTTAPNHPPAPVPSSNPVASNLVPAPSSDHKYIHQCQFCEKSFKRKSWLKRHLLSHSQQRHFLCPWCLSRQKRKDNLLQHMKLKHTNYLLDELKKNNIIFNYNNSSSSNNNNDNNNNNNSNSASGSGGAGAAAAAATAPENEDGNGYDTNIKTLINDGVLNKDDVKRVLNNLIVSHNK
Experiment: PBM E-score (8-mer binding enrichment) (E-score (-0.5 to 0.5)); higher = stronger / more preferred TF binding; most listed sequences are background and not binding sites
Details: protein concentration: 200 nM; construct: GST-full length
In short: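 Detection of bound protein used fluorescent anti-GST, with scans normalised by masliner. The proteins were GST-tagged yeast transcription factors applied at about 100-200 nM to universal all-10-mer Agilent arrays made double-stranded by primer extension. Each ungapped eight-base word, pooled with its reverse complement, was scored with an E-score from the Universal PBM Analysis Suite.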

Row | Sequence | PBM E-score
1 | TACTTACA | 0.245
2 | TAATGAAA | 0.0802
3 | ATGGTGGG | -0.235
4 | CGCGCAGA | -0.159
5 | ATGGAGCA | -0.0566
6 | GCCCTACC | -0.00913
7 | CCGCCGTC | -0.195
8 | GCCTACCC | 0.199
9 | ATCGGAAA | 0.0192
10 | GTTCAAGA | -0.19
11 | GCGGCATA | 0.073
12 | AACTCCTC | -0.153
13 | AACGTGCT | 0.141
14 | AAATAATA | 0.218
15 | GCACCCGA | -0.232
16 | AGACTTAT | 0.0426
17 | CAGTTATG | -0.0206
18 | AGGCGTCG | 0.103
19 | CCCCGCCA | -0.205
20 | AGTATGCG | -0.088
21 | AGCAGGGG | -0.297
22 | ATGGTGCC | 0.237
23 | CGGCAGAC | -0.337
24 | ACCAACGG | -0.137
25 | AGCGGTTG | -0.0957

Row | Sequence | PBM E-score
26 | TCGTGAAA | -0.125
27 | TAAATACA | 0.366
28 | GTGACAAA | 0.0421
29 | GGACCCGA | -0.265
30 | AACCTTAG | 0.0134
31 | AACTCTCG | -0.0358
32 | GGACTTTA | -0.121
33 | TGTGCTAA | 0.171
34 | GCACTAAC | -0.0489
35 | GAAAGGGA | 0.0421
36 | AGCGGCTG | -0.274
37 | CACAGTCC | -0.0652
38 | AATTCAGC | -0.108
39 | ATCCTGGC | -0.117
40 | AATTTTGT | 0.122
41 | AGCACGAC | -0.0207
42 | CTGTGCTC | 0.0292
43 | GAACTCAA | -0.111
44 | GACGAGAC | 0.147
45 | CGCTCTAA | -0.131
46 | AATGTCAT | 0.0778
47 | AAAAGACT | -0.126
48 | TATGTTAA | 0.396
49 | GGCCCTGA | -0.231
50 | CGCGACTA | 0.141

Row | Sequence | PBM E-score
51 | CAGCCGGG | -0.136
52 | GTGACGGA | -0.0999
53 | ATACAGCA | 0.135
54 | TACTTGGA | 0.177
55 | CAAGGAAA | 0.317
56 | GGTGAAGA | -0.16
57 | ACTAGCGG | -0.0418
58 | ATCGGACG | -0.172
59 | ATGCTCCC | -0.214
60 | GTTTTCCA | 0.144
61 | TAGAGTCA | 0.0332
62 | ATTAGTTC | -0.0245
63 | ACCTTTCC | 0.0757
64 | CCCACTCG | -0.185
65 | CGAGGGGC | -0.254
66 | CATATATG | 0.152
67 | CGCAGGAC | -0.0456
68 | CAAACTCA | 0.145
69 | ACCGTCAG | -0.337
70 | CGCCAATC | -0.166
71 | TAGGCTGA | -0.144
72 | TAGGGCCA | -0.299
73 | AAAAGTTG | 0.0843
74 | AATCTAGT | -0.024
75 | AGGGGGAA | -0.17

Row | Sequence | PBM E-score
76 | TCAGAAAA | -0.0532
77 | CCCCTCTA | -0.0583
78 | CCTGCTGA | 0.231
79 | AAGGTCAC | 0.0545
80 | AACTACAG | 0.108
81 | GAGCAAGC | -0.221
82 | ACTTCTTC | 0.0443
83 | AGCGGGCC | -0.18
84 | CGCCCTCC | -0.296
85 | GCCAGGGC | -0.165
86 | AAGGACTA | -0.00807
87 | CTCTGCCC | -0.025
88 | TACGGTGA | 0.0714
89 | CACCAGGA | -0.104
90 | CTCAGCAG | -0.113
91 | CGTTCACA | 0.123
92 | CCGAACAA | 0.0981
93 | AAGGTTGA | 0.0788
94 | CGGATGAC | -0.066
95 | CTCTGAAC | -0.171
96 | ATTCAGGG | -0.0077
97 | CGCATTGA | 0.0524
98 | GACCCTAA | -0.333
99 | GAGTTTAA | 0.052
100 | CGTATTAC | 0.294

Row | Sequence | PBM E-score
101 | CGCTTGAC | 0.009
102 | ACAAATAA | 0.187
103 | CGCTGGGC | -0.171
104 | TACGCACA | 0.242
105 | CAGTCGGG | 0.0768
106 | CCACTCGC | -0.171
107 | ATGCAGGG | -0.153
108 | AAAGCTAA | 0.14
109 | GGACCTGA | -0.179
110 | AGGTCCGC | -0.307
111 | CGATCGCA | -0.0487
112 | TCTCAGCA | -0.0977
113 | ATATCCGG | -0.00421
114 | CCTGGTTA | 0.0286
115 | ACAAATTG | 0.0261
116 | TGGCCACA | -0.096
117 | GTACGCGA | 0.237
118 | GCTATCAC | -0.0898
119 | ACGTCCTA | -0.0361
120 | GAACGCAC | 0.154
121 | CAAAGACA | 0.162
122 | ATCCGTTA | 0.0585
123 | AGTAATCA | 0.104
124 | AGGATGCA | -0.0683
125 | CGACCGAC | 0.0437

Row | Sequence | PBM E-score
126 | TGGGCGAA | -0.18
127 | GAACCGGA | -0.0781
128 | TATTCGGA | 0.0326
129 | ATTAGCGC | -0.0551
130 | ACCCGCCT | -0.118
131 | AACAGTTG | -0.0428
132 | AAACGTAG | 0.15
133 | AAGGACTC | -0.217
134 | ACGGCATA | 0.0107
135 | ACCTTTTG | 0.123
136 | CTCCAGTC | -0.336
137 | AGTGAGGG | -0.265
138 | CGGAAACG | 0.00102
139 | TCGAGCCA | -0.0914
140 | ATCCACTC | -0.0433
141 | CTACAAAC | 0.174
142 | CCTCAACG | -0.174
143 | GACCCCCA | -0.371
144 | ATCATTCC | -0.194
145 | CTTCGTAC | 0.0353
146 | ACCTAACT | -0.0441
147 | AGGTGAAC | -0.0992
148 | GATGTGGA | -0.133
149 | GAATCCGA | -0.0795
150 | AACTTTTG | 0.185

Row | Sequence | PBM E-score
151 | GGCTATAC | -0.0842
152 | CAGCATTA | 0.0139
153 | AAGCACAA | 0.188
154 | CTAGCCAG | -0.0919
155 | AATCTCGC | 0.0121
156 | GCAATTAA | 0.0812
157 | AAGGAGAG | -0.171
158 | CTATACTA | 0.0877
159 | AGACCAAA | -0.193
160 | CAAACATA | 0.111
161 | ATGTTCGG | -0.0775
162 | ACGTGATC | 0.0294
163 | TGACGTCA | -0.00588
164 | AAACCATG | -0.04
165 | GTCCTAGA | -0.0721
166 | CTGCTGAC | 0.0167
167 | CTAATCTA | 0.0529
168 | GAACACGC | 0.2
169 | AGAACAGC | 0.108
170 | ATCATAGC | 0.0333
171 | GAACTACC | 0.0334
172 | AAGTGCCC | -0.177
